# In all, about 220,000 compounds went through this assay and about 16,000 (7.3%) were called active. Inconclusive results, whose numbers are uncertain, are shown with a selection of clear calls. Calls follow the shape of the dose curve; as a rule, active = well fitted inhibition curve with a large enough effect (not every such curve was filed as active); inconclusive = small, poorly fitted or top-dose-only effect, or another doubt; inactive = no such curve, though single readings can be large or run the other way. No potency is given beside an inconclusive call; the fits are too rough.
# Target: Aldehyde dehydrogenase 1A1 (Homo sapiens) (UniProt P00352)
# Experiment: qHTS Assay for Inhibitors of Aldehyde Dehydrogenase 1 (ALDH1A1);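 as to activity, negative = inhibition: plate controls were no enzyme wells and a reference inhibitor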
# Conditions: Purified ALDH1A1, NADH fluorescence, propionaldehyde substrate; series mostly up to 75.3 µM; activity, negative = inhibition: at the top concentration
# Potency is read from the fitted curve at half-maximal effect; tags tell the direction and shape of the fitted curve.
# UniProt P00352, sequence (P00352 whole entry, looked up): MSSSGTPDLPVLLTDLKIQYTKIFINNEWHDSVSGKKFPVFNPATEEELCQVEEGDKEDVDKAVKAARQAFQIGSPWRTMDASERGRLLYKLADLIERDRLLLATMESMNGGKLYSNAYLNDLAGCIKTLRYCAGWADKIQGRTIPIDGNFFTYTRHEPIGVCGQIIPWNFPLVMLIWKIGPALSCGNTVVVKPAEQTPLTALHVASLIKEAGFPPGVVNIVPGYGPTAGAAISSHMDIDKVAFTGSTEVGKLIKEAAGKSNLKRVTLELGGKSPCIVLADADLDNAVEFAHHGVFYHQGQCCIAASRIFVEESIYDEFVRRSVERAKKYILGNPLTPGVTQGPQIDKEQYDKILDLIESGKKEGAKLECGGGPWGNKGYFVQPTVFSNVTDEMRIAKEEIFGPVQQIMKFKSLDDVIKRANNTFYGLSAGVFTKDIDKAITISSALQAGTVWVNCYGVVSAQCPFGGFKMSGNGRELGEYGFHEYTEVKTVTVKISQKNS
Structure (SMILES),"activity, negative = inhibition",Potency
CCCc1ccc(Oc2cn[nH]c2-c2ccc(O)c(C)c2O)cc1,inactive: 4.92%,
CC1CCC2(CC1)Nc1ccccc1C(=O)N2c1ccccc1 (configuration not stated),,"inconclusive [inhibitor, partial curve]"
C=CCNc1cnn(-c2ccc(C)cc2)c(=O)c1Cl,,"inconclusive [inhibitor, single point]"
Oc1ccc(/C=N/Nc2ncnc3c2ncn3Cc2ccccc2)cc1O,,"inconclusive [inhibitor, single point]"
COc1ccc(NC2=C3CC(C)CC=C3N(c3ccc(OC)cc3)C2=O)cc1 (configuration not stated),,"inconclusive [inhibitor, single point]"
Fc1cccc(Cl)c1CNc1ccc(N2CCCC2)cc1,,"inconclusive [inhibitor, partial curve]"
COc1cc(CC(=O)Nc2ccc(S(=O)(=O)NC3=NCCCCC3)cc2)cc(OC)c1OC,inactive: -3.54%,
CCOc1ccc(Br)cc1S(=O)(=O)Nc1cccc(S(=O)(=O)N(CC)CC)c1,,active: 11.2 µM
CN(CCCCCC(=O)/C=N/O)Cc1ccccc1,inactive: 8.57%,
CC(=O)N1CCCc2ccccc21,inactive: 3.98%,
Cc1oc2ccc(NS(=O)(=O)c3cccc4cccnc34)cc2c1C(=O)OC(C)C,,"inconclusive [inhibitor, single point]"
CCOC(=O)N1CCN(C(=O)CN(Cc2ccccc2)S(=O)(=O)c2ccc(OC)c(C)c2)CC1,,"inconclusive [inhibitor, single point]"
Cc1cccc(C)c1NC(=O)CSc1ccc([N+](=O)[O-])cn1,inactive: 5.34%,
COC(=O)c1ccc(NC(=O)COc2ccc(S(=O)(=O)NC(C)(C)C)cc2)cc1,,"inconclusive [inhibitor, single point]"
Cc1cc(S(=O)(=O)N2CCN(Cc3ccc4c(c3)OCO4)CC2)cc(C)c1N1CCCC1=O,inactive: -9.11%,
CCOc1ccccc1CNCCOC,inactive: 1.78%,
Cc1cccn2c(=O)c(/C=C(\C#N)S(=O)(=O)c3ccccc3)c(N3CCN(C)CC3)nc12,,active: 11.2 µM
COC(=O)c1cn(NC(=O)C2COc3ccccc3O2)c(=O)c2ccccc12 (configuration not stated),,"inconclusive [inhibitor, partial curve]"
COc1ccccc1NC(=O)CNC(=O)c1ccccc1,inactive: 3.19%,
CN(C)/C=N/C(=S)Nc1cc(Cl)cc(Cl)c1,inactive: 6.85%,
CC1CCN(C(=S)c2ccc(N(C)C)cc2)CC1,,active: 12.6 µM
CN(C)c1ncc([N+](=O)[O-])cc1C(F)(F)F,,active: 14.1 µM
Cc1cc(C)c2nc(C(F)(F)F)c(C#N)c(N)c2c1,inactive: 10.3%,
CC(=O)SC(C)CC(=O)NCc1ccccc1 (configuration not stated),inactive: 0.938%,
CN(C)/C=N/c1nc2nccc(-c3ccccc3)n2n1,,"inconclusive [inhibitor, partial curve]"
COc1ccc(Cn2c(S(=O)(=O)CC(N)=O)nc3ccccc32)cc1[N+](=O)[O-],,active: 7.08 µM

Structure (SMILES),"activity, negative = inhibition",Potency
Cc1ccc(-c2nnc(SCC(=O)N3CC(C)CC(C)C3)o2)cc1C (configuration not stated),,"inconclusive [inhibitor, single point]"
CCc1nnc(NC(=O)C2CCCN2S(=O)(=O)c2ccc(F)cc2)s1 (configuration not stated),inactive: 0.442%,
COc1cccc(OCCNC(=O)CSc2ccc(C(F)(F)F)cc2[N+](=O)[O-])c1,,active: 31.6 µM
O=C(CSc1nc2c(c(=O)n1-c1ccc(Br)cc1)SCC2)NCc1ccco1,inactive: 2.97%,
CCCCN(C)CCCNC(=O)/C=C1\Sc2ccccc2NC1=O,inactive: 5.09%,
O=C(CC(c1ccco1)C1CCCCC1=O)c1ccccc1 (configuration not stated),,"inconclusive [inhibitor, partial curve]"
O=C(NCC1CCCO1)c1nc2c(nnn2Cc2ccc(F)cc2)c(=O)[nH]1 (configuration not stated),inactive: 0.793%,
CCOc1cc(C(=O)OCC(=O)c2c(N)n(C)c(=O)n(C)c2=O)cc(OCC)c1OCC,inactive: 11.6%,
CCC(=O)NC(=S)Nc1ccc(NC(=O)CC)cc1,inactive: 8.17%,
O=C(O)CCc1c(C(=O)O)[nH]c2ccccc12,,"inconclusive [inhibitor, single point]"
CCOC(=O)C(C)Sc1nc2ccccc2c(=O)n1CC1CCCCC1 (configuration not stated),,"inconclusive [inhibitor, partial curve]"
O=C(O)C1CCN(c2nc(-c3ccccc3)nc3c2oc2ccccc23)CC1,,"inconclusive [inhibitor, partial curve]"
N#CCCN(C(=O)CSc1nc2nc(-c3cccs3)cc(C(F)(F)F)c2c(=O)[nH]1)c1ccccc1,,"inconclusive [inhibitor, partial curve]"
COc1cc2ccccc2cc1C(=O)NC(=S)Nc1cc(C(=O)O)ccc1C,inactive: 8.94%,
CC1CC2(CCCCC2)Nc2ccc3ccccc3c21 (configuration not stated),,"inconclusive [inhibitor, partial curve]"
COC(=O)CSc1ncnc2c1cnn2Cc1ccccc1,inactive: -5.25%,
COc1ccc(C(=O)OCC(=O)NC2CC2)cc1[N+](=O)[O-],,"inconclusive [inhibitor, single point]"
COc1ccc(CNC(=O)CSc2nc(-c3ccccc3)cc(-c3cccs3)c2C#N)cc1,,"inconclusive [inhibitor, single point]"
COCCCn1c(Cc2csc(Nc3ccccc3)n2)nnc1SCC(N)=O,inactive: -2%,
CCOC(=O)c1c(NC(=O)CSc2nnc(CNc3ccc(Cl)cc3)o2)sc(C)c1C,,active: 11.2 µM
Cc1cccnc1NC(=S)NCc1ccco1,,active: 12.6 µM
Cc1ccc(NC=C(S(=O)(=O)c2ccccc2)S(=O)(=O)c2ccccc2)c(C)c1,inactive: -2.08%,
CCOCCCn1c(=NC(C)=O)c(C#N)cc2c(=O)n3ccccc3nc21,,"inconclusive [inhibitor, partial curve]"
COc1cccc(-c2nc(NC3CCNCC3)c3ccccc3n2)c1,,active: 31.6 µM
O=C(c1cn(-c2ccccc2)nc1-c1cccc([N+](=O)[O-])c1)N1CCCCC1,,"inconclusive [inhibitor, single point]"
COc1ccc(OC)c(C2=NOC(C(=O)Nc3ccccc3SC)C2)c1 (configuration not stated),,"inconclusive [inhibitor, single point]"

Structure (SMILES),"activity, negative = inhibition",Potency
CCOC(=O)CCCCNC(=O)Nc1ccccc1,,"inconclusive [inhibitor, single point]"
COc1ccc(NCc2nnc(SCC(=O)c3ccc(OC)cc3)n2C)cc1,,active: 6.31 µM
COc1cccc(C(=O)NC(=S)Nc2ccc([N+](=O)[O-])cc2C)c1,,"inconclusive [inhibitor, partial curve]"
CCn1c(=O)cc(SCC(=O)NCCN2CCN(Cc3ccccc3)CC2)c2ccccc21,,"inconclusive [inhibitor, single point]"
O=C(O)CCC(=O)N1N=C(c2c(-c3ccccc3)c3cc(Cl)ccc3[nH]c2=O)CC1c1ccccc1 (configuration not stated),inactive: 5.43%,
O=C(COc1ccc(F)cc1)N1c2ccccc2CCc2ccccc21,,"inconclusive [inhibitor, single point]"
CN(C)C(CNC(C(=O)Nc1ccc([N+](=O)[O-])cc1Br)c1ccccc1)c1ccccc1 (configuration not stated),,"inconclusive [inhibitor, single point]"
O=C(Nc1cc(C(=O)Nc2ccc(S(=O)(=O)O)cc2S(=O)(=O)O)cc(C(=O)Nc2ccc(S(=O)(=O)O)cc2S(=O)(=O)O)c1)Nc1cc(C(=O)Nc2ccc(S(=O)(=O)O)cc2S(=O)(=O)O)cc(C(=O)Nc2ccc(S(=O)(=O)O)cc2S(=O)(=O)O)c1,,inactive
S=c1[nH]nc(-c2ccccn2)n1/N=C/c1ccccc1,inactive: -14.7%,
Cc1cc(=O)oc2cc(OCc3nnc(-c4ccccc4Br)o3)ccc12,,"inconclusive [inhibitor, partial curve]"
CCCCN1c2ccccc2N(CCCO)c2cc(C)nnc21,,"inconclusive [inhibitor, single point]"
CCc1cccc(Nc2c([N+](=O)[O-])cc(C(=O)N3CC(=O)Nc4ccccc43)cc2[N+](=O)[O-])c1,inactive: -5.59%,
CCC(C)NC(=O)CSc1nc2cc3c(cc2c(=O)n1Cc1ccco1)OCO3 (configuration not stated),,"inconclusive [inhibitor, partial curve]"
Cc1cc(/C=C2\Cc3ccccc3C2=O)c(C)n1-c1ccccc1,,active: 7.94 µM
CN(C)CCCNCCCNC(=O)c1ccncc1,inactive: -5.99%,
COC(=O)c1noc(C)c1-c1ccnn1C(=O)c1ccc(Cl)cc1,,"inconclusive [inhibitor, single point]"
COCc1nnc(NS(=O)(=O)c2ccc(C)cc2)s1,inactive: 4.9%,
Cc1ccc2nc(Nc3nc(CSc4nnnn4-c4ccccc4)cc(=O)[nH]3)nc(C)c2c1,,"inconclusive [inhibitor, partial curve]"
Cn1cccc1/C=N/n1c(-c2ccc(C(C)(C)C)cc2)n[nH]c1=S,,"inconclusive [inhibitor, single point]"
CC(C)(Oc1ccc(Cl)cc1)C(=O)NCc1ccco1,,active: 12.6 µM
Cc1nc(N2CCN(c3ccccc3)CC2)nc2c1C(=O)CC(C)C2 (configuration not stated),,"inconclusive [inhibitor, single point]"
CN(C)c1ccc(N/C=C/C(=O)c2ccc(F)cc2)cc1,inactive: -2.73%,
COc1ccc(N=Cc2c(O)cc(C)oc2=O)cc1,,"inconclusive [inhibitor, single point]"
Oc1[nH]c2ccc(Br)cc2c1N=Nc1ccc(C(F)(F)F)cn1,,"inconclusive [inhibitor, partial curve]"
Cc1ccc(-c2nnc(-c3ccc4ccccc4c3)o2)cc1,,"inconclusive [inhibitor, single point]"

# Reference: PubChem BioAssay AID1030 (National Center for Advancing Translational Sciences (NCATS), 2008)
